Reference: the RNAGym collection of RNA variant scans (doi:10.7554/elife.90254)
Read counts are not given, so values of variants with three or more changes are uncertain.

B1: OR4K15 (parent)
chain: GUUAACGGUCAUAGGCCAUGGAAACUAGGAGCACCAUUUCGCUGCCAGUGAAGAAAUGAACAAAGAAAAUCUGGGCCAGGCAGGCAUCAAAAGAAAUAGUCUUGCGCUCAACCAGAAAGUCUGUAAUCAUUUUAAGGGUA

Variants of: B1
Experiment: self-cleavage, relative activity (ratio to wild type); higher = more cleavage; in vitro, sequencing; the parent is a self-cleaving ribozyme

Variant	self-cleavage
C71A U103A U130C	0.08
A55G A117G U131A U132A	1.09
U19C U37C U43C A51G A63G A68G	1.73
A95G C107G U130A U132C	0
G41A A66C A90G U103C	0.46
A47U A89C G106A A111C	0
U38A A64U C128A	0.93
A13G U39C C71U U132G	0.07
A36G A62G A89U U108C A110G	0.01
U37C A54G A63G	1.98
A33G U37C A54U A140U	0.81
A68G A90G U127C	0.69
A47G G99A U100C	0.26
U26A C40U A86U A135G	1.55
U57G U87A A89G	0.37
U2A U3C A68G A118G	0.89
U2C A56G U103C	1.32
U2C A78G A82U	0.17
A64U U87C A90G	0.43
A13G A59G U103C A140G	1.09
A18G U39C C42U	1.59

Variant	self-cleavage
A59G U100C U108C U131C	0
A51G U72C A95G U108C A116G A126U	0.01
A13U A47U A86C U108C U127A	0
U9C A82G U103C U124A	1.62
A22G A91G U103C	0.4
A51G A116G A117G	1.48
A47C A68G A86G A114U	0.12
A18G U72C A135G	0.33
A51G A116G U139C	1.05
A18U U19C A24G A52U	1.96
A62G U108C A126G	0.01
G20C A30C A51G A118G U124A	0.67
U3C A62G U127C	1.39
A11G G50A G80U A94G U120C U131C	0.07
A30U A33C A68G U132C	0.72
U3C U108C A125G	0.04
A47G A98G A118U	0.05
C10U U12C U122C	0.92
A23C A52G U132C U133A	2.03
A22U A24U U103C A125G	0.28
A47G A69G U100C	1.87

Variant	self-cleavage
A78U U87C A111G	0.02
A116G A117G A126U	0.5
A23U U38C A62G U122C	1.34
A4G C61U U87C A89C	0.87
U19A U39G U103C	0.86
G21U U43C A51U A91G A94G C113U	0.02
A33G U43C A98G A117G	0.27
A24G A60G A86G	1.56
A4G U39A A52G A86U U130C	1.22
U38C A51G A52G A78G	0.59
C46U A78G C81U	0.1
G14A C40U U72C U87C	0.02
A22G A96G U102C A129G	2.19
U19C U72A U130C	0.07
A5G A22G A52C U131C	0.77
A4G G15U A94G	0.77
A22G A36G A54G U102A U108A U131C	0.01
A22U A23G A111U A114U U122A A140G	0
A11U U87A U127C	1.86
A90G A95G U103C G106A	0.01
U37C A51G A54G A126G	0.88

Variant	self-cleavage
U19C A66G C81A U124C	0.16
U12C G48A A118G	0.77
U2C U108A A117G	0
A36G A51G A62C A95G	1.07
U9A U122C U132A	0.84
A54G A62G A98G	0.32
A22G A30G A118G	1.2
U37C U72A C76U U100C A126G	0.11
A52U A67G A98G	0.31
A60G A86G U120A	0.65
U2C A78G A129U	0.07
U2C A27C A33G U122A	0.49
A22U U37C U102C	2.25
A82U A114G A140U	0.05
A24U A54G A69G A94G	1
G14U U19C A22U C61U A78G A116G	0.05
A47U U72C U97C U100C U103C	0.17
A64G C112A A114U	0.01
C40A A126G A129G	0.95
G31A A64G A111G	0.03
